The target in test [1] is FLAG-tagged CDC20 (APC/C subunit) (UniProt Q12834). Kind of test: co-IP; HEK293T transfected with FLAG-tagged F-box proteins or the APC/C subunits CDH1 and CDC20; whole-cell extracts immunoprecipitated with anti-FLAG resin, immunoblotting for endogenous SHARP1. (A western blot detects proteins with antibodies after separation by electrophoresis.)
In test [2] the target is FLAG-tagged CDH1 (APC/C subunit) (UniProt Q9UM11). The test is described as above.
Test [3] deals with T1, FLAG-tagged FBXO17 (UniProt Q96EF6).
T1 sequence: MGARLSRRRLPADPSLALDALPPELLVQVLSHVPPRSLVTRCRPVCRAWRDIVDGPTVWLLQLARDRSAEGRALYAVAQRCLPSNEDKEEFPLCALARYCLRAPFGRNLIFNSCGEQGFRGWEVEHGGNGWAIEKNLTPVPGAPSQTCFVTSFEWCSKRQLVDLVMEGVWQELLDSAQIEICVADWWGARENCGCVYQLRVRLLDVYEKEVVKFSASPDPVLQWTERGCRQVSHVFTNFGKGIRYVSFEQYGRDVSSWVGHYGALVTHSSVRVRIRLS
Described as above.

Chains of the proteins cited; added tags and fusions are not shown. Lines headed by an entry give the natural chain unless they say otherwise; changes in a name come on top.
UniProt Q12834: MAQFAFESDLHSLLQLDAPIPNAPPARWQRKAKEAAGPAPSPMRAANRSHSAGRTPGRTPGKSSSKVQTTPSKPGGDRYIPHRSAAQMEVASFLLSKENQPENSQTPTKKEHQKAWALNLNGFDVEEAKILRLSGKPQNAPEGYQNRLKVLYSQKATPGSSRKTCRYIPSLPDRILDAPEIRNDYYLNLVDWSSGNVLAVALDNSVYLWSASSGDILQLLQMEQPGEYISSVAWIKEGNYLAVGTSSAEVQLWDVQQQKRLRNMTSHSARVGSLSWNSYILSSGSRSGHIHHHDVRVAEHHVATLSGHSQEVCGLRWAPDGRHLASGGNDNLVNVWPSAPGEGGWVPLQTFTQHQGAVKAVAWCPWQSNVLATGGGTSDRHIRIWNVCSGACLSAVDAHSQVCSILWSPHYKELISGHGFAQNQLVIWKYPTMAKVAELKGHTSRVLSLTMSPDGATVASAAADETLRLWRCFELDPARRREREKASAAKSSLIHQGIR
UniProt Q9UM11: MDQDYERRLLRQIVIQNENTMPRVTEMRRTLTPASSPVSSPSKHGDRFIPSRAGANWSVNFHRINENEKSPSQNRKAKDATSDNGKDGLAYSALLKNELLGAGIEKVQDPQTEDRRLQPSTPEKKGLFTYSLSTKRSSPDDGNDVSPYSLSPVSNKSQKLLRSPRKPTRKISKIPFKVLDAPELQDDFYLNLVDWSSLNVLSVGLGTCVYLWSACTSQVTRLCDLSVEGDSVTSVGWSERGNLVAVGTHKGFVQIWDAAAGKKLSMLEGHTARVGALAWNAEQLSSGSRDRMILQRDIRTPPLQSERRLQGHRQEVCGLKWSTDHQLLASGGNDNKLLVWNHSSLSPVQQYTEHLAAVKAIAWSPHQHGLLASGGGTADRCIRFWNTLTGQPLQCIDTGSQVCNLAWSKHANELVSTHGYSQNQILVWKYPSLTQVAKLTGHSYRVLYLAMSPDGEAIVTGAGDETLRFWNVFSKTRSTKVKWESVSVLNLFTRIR
UniProt Q969U6: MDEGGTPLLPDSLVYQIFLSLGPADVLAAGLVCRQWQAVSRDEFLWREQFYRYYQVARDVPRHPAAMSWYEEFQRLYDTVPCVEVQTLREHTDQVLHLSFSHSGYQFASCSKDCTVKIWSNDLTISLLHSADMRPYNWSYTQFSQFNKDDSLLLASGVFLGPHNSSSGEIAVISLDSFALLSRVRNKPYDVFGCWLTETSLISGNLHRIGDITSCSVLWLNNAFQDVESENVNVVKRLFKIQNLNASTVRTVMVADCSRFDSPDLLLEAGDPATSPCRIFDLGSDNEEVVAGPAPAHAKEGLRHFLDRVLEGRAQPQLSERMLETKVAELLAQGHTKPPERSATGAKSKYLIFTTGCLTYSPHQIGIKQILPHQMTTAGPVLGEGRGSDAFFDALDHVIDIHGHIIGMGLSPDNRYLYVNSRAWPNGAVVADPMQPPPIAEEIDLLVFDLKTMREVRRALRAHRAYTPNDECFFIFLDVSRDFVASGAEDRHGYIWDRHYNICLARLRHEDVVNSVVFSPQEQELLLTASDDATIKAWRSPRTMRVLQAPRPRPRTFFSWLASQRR
UniProt Q969H0: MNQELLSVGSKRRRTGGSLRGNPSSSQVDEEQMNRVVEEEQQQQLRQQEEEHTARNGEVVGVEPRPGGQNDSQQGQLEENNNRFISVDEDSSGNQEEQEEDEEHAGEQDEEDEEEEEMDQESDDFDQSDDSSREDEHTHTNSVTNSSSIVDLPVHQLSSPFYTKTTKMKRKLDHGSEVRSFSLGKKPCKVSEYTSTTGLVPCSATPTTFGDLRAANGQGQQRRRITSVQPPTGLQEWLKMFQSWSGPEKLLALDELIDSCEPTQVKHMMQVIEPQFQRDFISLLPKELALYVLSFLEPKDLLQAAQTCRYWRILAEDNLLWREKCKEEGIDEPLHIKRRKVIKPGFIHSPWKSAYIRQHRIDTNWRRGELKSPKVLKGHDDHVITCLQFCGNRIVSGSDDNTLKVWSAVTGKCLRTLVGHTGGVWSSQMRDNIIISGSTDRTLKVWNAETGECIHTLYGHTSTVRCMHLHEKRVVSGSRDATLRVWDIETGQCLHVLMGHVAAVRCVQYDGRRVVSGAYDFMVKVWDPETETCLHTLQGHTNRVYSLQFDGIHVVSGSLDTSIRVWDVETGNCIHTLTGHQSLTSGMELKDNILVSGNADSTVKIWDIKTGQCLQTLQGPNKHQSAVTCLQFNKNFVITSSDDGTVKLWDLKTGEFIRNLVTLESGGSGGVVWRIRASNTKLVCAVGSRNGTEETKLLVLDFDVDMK
UniProt Q5XUX1: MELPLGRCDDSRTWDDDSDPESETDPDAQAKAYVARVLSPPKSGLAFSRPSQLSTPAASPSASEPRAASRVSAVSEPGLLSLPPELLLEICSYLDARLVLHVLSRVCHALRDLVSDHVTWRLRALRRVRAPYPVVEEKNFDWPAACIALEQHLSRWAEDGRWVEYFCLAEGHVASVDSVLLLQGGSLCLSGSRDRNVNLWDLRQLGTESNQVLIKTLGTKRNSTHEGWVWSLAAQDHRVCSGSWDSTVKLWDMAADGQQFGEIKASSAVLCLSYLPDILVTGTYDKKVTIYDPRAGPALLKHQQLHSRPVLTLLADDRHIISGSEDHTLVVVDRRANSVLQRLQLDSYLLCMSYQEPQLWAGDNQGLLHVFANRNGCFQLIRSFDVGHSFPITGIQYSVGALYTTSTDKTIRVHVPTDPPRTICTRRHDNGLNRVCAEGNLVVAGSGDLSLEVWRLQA
UniProt Q9Y297: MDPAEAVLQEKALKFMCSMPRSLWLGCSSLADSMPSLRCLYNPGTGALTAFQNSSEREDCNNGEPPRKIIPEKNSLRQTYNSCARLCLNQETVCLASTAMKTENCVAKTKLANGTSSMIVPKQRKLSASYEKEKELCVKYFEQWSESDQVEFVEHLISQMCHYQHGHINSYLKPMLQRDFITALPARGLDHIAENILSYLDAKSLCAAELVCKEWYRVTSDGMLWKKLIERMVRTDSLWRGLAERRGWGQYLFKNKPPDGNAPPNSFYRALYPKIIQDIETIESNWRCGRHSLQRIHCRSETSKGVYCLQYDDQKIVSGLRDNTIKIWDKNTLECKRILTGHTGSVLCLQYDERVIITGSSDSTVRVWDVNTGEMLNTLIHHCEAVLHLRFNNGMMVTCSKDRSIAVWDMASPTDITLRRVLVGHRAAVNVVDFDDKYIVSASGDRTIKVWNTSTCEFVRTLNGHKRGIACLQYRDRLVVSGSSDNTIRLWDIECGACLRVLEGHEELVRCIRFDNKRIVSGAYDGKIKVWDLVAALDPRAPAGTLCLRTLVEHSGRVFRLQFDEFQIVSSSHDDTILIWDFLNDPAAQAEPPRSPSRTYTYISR
UniProt Q9UKB1: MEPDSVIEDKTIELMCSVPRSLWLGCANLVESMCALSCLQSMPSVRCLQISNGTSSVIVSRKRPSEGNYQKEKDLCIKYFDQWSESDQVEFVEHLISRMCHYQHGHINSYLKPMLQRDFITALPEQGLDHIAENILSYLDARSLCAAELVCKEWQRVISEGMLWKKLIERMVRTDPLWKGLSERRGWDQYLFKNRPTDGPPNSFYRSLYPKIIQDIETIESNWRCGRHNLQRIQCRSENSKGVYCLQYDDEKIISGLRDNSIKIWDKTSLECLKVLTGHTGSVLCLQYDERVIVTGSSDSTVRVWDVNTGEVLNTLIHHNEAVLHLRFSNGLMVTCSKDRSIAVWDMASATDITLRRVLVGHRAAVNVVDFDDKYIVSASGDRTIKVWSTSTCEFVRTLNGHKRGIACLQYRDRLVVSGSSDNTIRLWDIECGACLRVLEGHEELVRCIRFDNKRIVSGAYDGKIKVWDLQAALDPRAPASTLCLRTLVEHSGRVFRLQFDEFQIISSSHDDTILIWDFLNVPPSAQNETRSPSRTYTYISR
UniProt Q9C0J9: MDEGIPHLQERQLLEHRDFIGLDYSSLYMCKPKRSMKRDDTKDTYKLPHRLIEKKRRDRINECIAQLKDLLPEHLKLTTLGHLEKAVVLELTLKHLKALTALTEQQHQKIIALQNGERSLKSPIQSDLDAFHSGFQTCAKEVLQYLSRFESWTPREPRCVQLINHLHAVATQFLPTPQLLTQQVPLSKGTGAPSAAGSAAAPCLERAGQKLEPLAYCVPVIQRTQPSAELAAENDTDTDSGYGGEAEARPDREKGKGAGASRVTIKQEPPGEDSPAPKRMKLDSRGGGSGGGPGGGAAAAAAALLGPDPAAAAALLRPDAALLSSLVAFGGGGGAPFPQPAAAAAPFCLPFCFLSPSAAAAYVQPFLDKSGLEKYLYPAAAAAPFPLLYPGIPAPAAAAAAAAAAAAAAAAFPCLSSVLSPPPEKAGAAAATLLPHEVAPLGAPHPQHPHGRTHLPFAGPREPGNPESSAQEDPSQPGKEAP

Test [4] has as its target T2, FLAG-tagged FBXO6 (UniProt Q9NRD1).
T2 sequence: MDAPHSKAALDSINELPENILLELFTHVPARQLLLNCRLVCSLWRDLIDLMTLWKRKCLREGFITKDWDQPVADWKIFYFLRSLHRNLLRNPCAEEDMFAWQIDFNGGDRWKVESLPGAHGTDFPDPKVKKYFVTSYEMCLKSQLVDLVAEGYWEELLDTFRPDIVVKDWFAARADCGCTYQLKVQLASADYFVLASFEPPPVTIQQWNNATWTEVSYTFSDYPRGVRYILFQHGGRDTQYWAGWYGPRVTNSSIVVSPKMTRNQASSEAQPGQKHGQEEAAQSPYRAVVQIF
The test is described as above.

In test [5] the target is T3, FLAG-tagged FBXW2 (UniProt Q9UKT8).
T3 sequence: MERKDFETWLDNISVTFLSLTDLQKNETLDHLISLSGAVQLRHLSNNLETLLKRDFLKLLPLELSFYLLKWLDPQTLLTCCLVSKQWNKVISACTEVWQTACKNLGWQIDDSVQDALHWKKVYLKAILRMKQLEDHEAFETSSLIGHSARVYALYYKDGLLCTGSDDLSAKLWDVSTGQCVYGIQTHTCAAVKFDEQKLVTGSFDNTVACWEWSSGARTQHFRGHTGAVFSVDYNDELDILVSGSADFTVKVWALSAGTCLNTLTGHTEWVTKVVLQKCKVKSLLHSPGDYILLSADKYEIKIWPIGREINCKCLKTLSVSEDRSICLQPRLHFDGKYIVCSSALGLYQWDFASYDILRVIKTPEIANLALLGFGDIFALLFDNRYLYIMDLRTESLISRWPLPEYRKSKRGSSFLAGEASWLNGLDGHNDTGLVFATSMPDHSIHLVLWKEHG
The test is described as above.

Test [6] addresses T4, FLAG-tagged FBXW4 (UniProt P57775).
T4 sequence: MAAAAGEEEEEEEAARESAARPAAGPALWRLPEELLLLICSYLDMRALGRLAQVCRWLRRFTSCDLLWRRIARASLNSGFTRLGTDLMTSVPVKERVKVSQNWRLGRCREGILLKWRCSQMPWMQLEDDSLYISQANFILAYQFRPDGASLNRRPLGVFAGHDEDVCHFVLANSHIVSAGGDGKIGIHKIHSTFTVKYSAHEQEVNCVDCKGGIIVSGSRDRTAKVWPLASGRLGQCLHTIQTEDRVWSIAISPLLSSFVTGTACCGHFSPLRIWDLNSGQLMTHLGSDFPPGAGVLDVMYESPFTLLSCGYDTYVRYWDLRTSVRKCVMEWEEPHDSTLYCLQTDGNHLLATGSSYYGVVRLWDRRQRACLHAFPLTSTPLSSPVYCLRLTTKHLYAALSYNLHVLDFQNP
The test is described as above.

The target of test [7] is FLAG-tagged FBXW5 (UniProt Q969U6). Described as above.
Test [8] has as its target FLAG-tagged FBXW7 (UniProt Q969H0). Described as above.
Test [9] has as its target FLAG-tagged FBXW9 (UniProt Q5XUX1). The description is as above.
Test [10] addresses FLAG-tagged βTrCP1 (UniProt Q9Y297). Described as above.
Test [11] addresses FLAG-tagged βTrCP2 (UniProt Q9UKB1). The test is described as above.
The target in test [12] is HA-epitope tagged SHARP1(S240A/E245A) mutant (UniProt Q9C0J9). Kind of test: co-IP; MDA-MB231 parental cells or cells expressing HA-tagged wild-type SHARP1 or SHARP1(S240A/E245A); whole-cell extracts precipitated with HA resin, immunoblotting for endogenous βTrCP1.
In test [13] the target is HA-epitope tagged wild type SHARP1 (UniProt Q9C0J9). The description is as above.
Test [14] shares this target. Kind of test: co-IP; whole-cell extracts of MDA-MB231 cells (stably expressing HA-tagged SHARP1, or parental) immunoprecipitated with an anti-SHARP1 antibody, immunoblotting; Triton lysis buffer with 250 mM NaCl.
The target of test [15] is endogenous SHARP1 (parental MDA-MB231 cells) (human (endogenous in MDA-MB231)) (UniProt Q9C0J9). The test is described as above.
Test [16] has as its target FLAG-HA-epitope tagged SHARP1 (Split and Hairy-related Protein 1) (UniProt Q9C0J9). The test can be described thus: co-IP; HEK293T transfected with empty vector or FLAG-tagged SHARP1; whole-cell extracts immunoprecipitated with anti-FLAG resin, immunoblotting.

Results are given in words; binding and its absence hold for the method and conditions named. Binding seen in cells or lysates may run through a third protein. Some binding calls cover weakened binding; strength is not graded here. For some of these results: Where a sequence is shown, tags or fusion partners need not be part of it.

Turning to “endogenous SHARP1 (HEK293T cells) (from UniProt Q9C0J9 1-482)”, the binding entry in test [1], in [2], in test [3], in test [4], in [5] and in test [6] was “no binding” throughout. Further, the binding entry in test [7] is reported as “no binding”; in [8], “no binding”; in test [9], “no binding”; in test [10], “binds”; in test [11], “binds”.

For “endogenous βTrCP1 (MDA-MB231 cells) (from UniProt Q9Y297 1-605)”, the binding entry in [12] was “no binding”; in test [13], “binds”; in [14], “binds”; in [15], “binds”.

“βTrCP1 (endogenous, HEK293T cells) (from UniProt Q9Y297 1-605)”: the binding result in [16] is “binds”.

These data come from publication PMC10632515.
